Laboratory results reported in publication PMC9807637.
Numbering of substitutions follows the chain as printed. Results are given in words; binding and its absence hold for the method and conditions named. Binding seen in cells or lysates may run through a third protein. Some results given as binding are weak or reduced against the parent protein; the word gives no strength. For some of these results: Sequences can lack the tags named with a protein.

Amino acid sequences for entries named in this document (tags omitted).
UniProt Q9Z2F7: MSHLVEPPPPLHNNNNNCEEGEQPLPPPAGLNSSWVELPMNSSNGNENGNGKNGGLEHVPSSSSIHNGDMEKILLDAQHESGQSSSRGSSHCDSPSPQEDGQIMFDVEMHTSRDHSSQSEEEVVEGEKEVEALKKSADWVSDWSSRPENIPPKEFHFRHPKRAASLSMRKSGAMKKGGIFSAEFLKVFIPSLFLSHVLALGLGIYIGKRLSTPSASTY
UniProt P59017: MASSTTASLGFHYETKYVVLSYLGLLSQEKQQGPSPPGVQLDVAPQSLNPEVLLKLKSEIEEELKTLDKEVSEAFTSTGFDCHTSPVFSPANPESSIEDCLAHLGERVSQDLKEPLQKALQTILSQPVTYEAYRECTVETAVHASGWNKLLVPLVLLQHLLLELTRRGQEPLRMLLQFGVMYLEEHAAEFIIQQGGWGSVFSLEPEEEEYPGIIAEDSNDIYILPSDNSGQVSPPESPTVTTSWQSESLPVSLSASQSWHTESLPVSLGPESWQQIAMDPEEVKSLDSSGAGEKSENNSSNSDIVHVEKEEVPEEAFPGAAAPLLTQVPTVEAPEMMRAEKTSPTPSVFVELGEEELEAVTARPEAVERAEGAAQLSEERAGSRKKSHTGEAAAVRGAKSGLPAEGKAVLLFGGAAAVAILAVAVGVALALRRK
UniProt Q8K3K8: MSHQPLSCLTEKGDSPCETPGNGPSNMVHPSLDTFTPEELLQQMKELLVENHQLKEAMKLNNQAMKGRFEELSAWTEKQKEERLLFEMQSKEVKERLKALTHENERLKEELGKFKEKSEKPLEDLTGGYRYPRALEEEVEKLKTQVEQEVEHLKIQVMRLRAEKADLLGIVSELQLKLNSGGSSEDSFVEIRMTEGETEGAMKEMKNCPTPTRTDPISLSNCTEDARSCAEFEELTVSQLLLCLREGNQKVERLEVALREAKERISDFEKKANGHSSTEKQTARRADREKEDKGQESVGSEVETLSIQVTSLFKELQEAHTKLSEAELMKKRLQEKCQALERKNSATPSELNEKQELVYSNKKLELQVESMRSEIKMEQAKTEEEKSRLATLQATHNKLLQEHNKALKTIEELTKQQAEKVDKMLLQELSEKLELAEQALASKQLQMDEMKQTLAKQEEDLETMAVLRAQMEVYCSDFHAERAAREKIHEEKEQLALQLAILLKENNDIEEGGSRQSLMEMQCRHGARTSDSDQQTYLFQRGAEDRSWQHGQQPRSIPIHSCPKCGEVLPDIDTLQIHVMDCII

T1: Prohibitin 1 (mouse (endogenous in ileal IECs and Mode-K cells)) (UniProt P67778)
T1 sequence: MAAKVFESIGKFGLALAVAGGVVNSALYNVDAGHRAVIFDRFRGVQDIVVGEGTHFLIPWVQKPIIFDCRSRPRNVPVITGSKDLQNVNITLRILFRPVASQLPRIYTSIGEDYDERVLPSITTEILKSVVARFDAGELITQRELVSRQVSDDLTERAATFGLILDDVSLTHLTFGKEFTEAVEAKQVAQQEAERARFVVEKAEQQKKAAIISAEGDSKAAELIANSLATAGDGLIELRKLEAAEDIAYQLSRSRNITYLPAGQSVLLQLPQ

T2: GST-PHB1 (UniProt P35232)
T2 sequence: T1 sequence with Y107F

B1: FundC1 (protein, UniProt Q9DB70 1-155)
chain: MASRNPPPQDYESDDESYEVLDLTEYARRHHWWNRVFGHSSGPMVEKYSVATQIVMGGVTGWCAGFLFQKVGKLAATAVGGGFLLLQVASHSGYVQIDWKRVEKDVNKAKRQIKKRANKAAPEINNIIEEATDFIKQNIVISSGFVGGFLLGLAS
B2: NDP52 (protein, UniProt A2A6M5 1-331)
chain: MDQCPIPTLLEHGNFSQVLFNNVEKFYAPRGDIMCYYTLTEKFIPRRKDWIGIFKVGWKTTQEYYTFMWAPLPKDQNKDSATQQEIQFKAYYLPKDVERYQFCYVDEDGLVRGTSVPFQFCPDPDEDIMVVINKEKVEEMEQLSEELYQQNQELKDKYADLHEQLQRKQVALEATQRVNKTLEHKVEEKASWEKEKASWEEEKASWEEEKASWEEEKASWEEEKASWEEEKASWEEEKASWEEEKASWEEEKASWEEEKASWEEEKASWEEEKASWEEEKASWEEEKASWEKEKASWEEEKASWEKEKAPWEVEKAPWKEVKAYWWNDLHR

Assays:
[1] = target: T1, Prohibitin 1 (mouse (endogenous in ileal IECs and Mode-K cells)); test: co-IP; Mode-K cells, vehicle, N-acetyl-l-cysteine (NAC) or mitoTEMPO; basal PHB1/Nix interaction (Fig. S13)
[2] = target: T1, Prohibitin 1 (mouse (endogenous in ileal IECs and Mode-K cells)); test: co-IP; primary ileum IECs from wild-type or Parkin-/- mice, treated with 500 nM rotenone or vehicle for 2 h; 1 mg pre-cleared total protein, IP with PHB1 antibody or control IgG at 4 °C for 16 h, Protein G Plus-Agarose; immunoblot for Nix or PHB1
GST-PHB1 = target: T2, GST-PHB1; test: pull-down; GST-PHB1 immobilized on glutathione agarose beads; 500 ug protein from primary mouse IECs (wild-type or Parkin-/-) or Mode-K cells, 4 °C for 2 h; washed 3 times with 2 mM HEPES-HCl, 150 mM NaCl, 1 mM EDTA, 0.5% Tween; western blotting; only the target purified

Row | Molecule | binding [1] | binding [2] | binding (GST-PHB1)
1 | Nix/Bnip3L (from UniProt Q9Z2F7 1-218) | binds | binds | binds
2 | Bcl2L13 (from UniProt P59017 1-434) | – | – | no binding
3 | Optineurin (from UniProt Q8K3K8 1-584) | – | – | no binding
4 | B1 | – | – | no binding
5 | B2 | – | – | no binding
